# Test results from PubChem BioAssay AID1745853 (National Center for Advancing Translational Sciences (NCATS), 2022).
# The list shows a part of the results. These are further read-outs of the screen, such as a control signal, another cell line or another target. No call is given for them. Numbered stars: 1 amine (or outer) side, 2 acyl side, 3 side chain; on linkers, the order of the positions; unused ones are H or OH. Bridge positions count the residues as written; N and C are the ends. Peptide text beside a SMILES is read from it. X4 = O=C(CCC[*:2])[*:1]
# Columns and labels:
# Assay in all cases: Primary Screen for Target Class Profiling of Small Molecule Inhibitors of Methyltransferases
# [1] = molecular target: Glycine N-methyltransferase (Homo sapiens) (UniProt Q14749); details: purified enzyme, MTase-Glo SAH luminescence; measured here: GNMT inhibition; at 40 µM; stronger effect = lower value
# In short: (§1)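 Each enzyme was assayed with SAM and its substrate. SAH formation detected by MTase-Glo luminescence; single-point 40 uM screen[…].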
# [2] = molecular target: Guanidinoacetate N-methyltransferase (Homo sapiens) (UniProt Q14353); details: purified enzyme, MTase-Glo SAH luminescence; measured here: GAMT inhibition; at 40 µM; stronger effect = lower value
# In short: as §1
# [3] = molecular target: Histamine N-methyltransferase (Homo sapiens) (UniProt P50135); details: purified enzyme, MTase-Glo SAH luminescence; measured here: HNMT inhibition; at 40 µM; stronger effect = lower value
# In short: as §1
# [4] = molecular target: Nicotinamide N-methyltransferase (Homo sapiens) (UniProt P40261); details: purified enzyme, MTase-Glo SAH luminescence; measured here: NNMT inhibition; at 40 µM; stronger effect = lower value
# In short: as §1
# [5] = molecular target: Phenylethanolamine N-methyltransferase (Homo sapiens) (UniProt P11086); details: purified enzyme, MTase-Glo SAH luminescence; measured here: PNMT inhibition; at 40 µM; stronger effect = lower value
# In short: as §1
# On the % scale 0 is the no-effect control and ±100 the full control effect.
Structure (SMILES),"activity change, negative = inhibition [1]","activity change, negative = inhibition [2]","activity change, negative = inhibition [3]","activity change, negative = inhibition [4]","activity change, negative = inhibition [5]"
COc1ccc(C(=O)Nc2ccc([C@H]3OCC(=O)N[C@@H]3CO)cc2)cc1,-3.71%,-5.49%,-1.6%,-7.84%,-3.65%
Cc1ccc(Cn2nc3n(CCc4ccccc4)c(=O)c4ccccc4n3c2=O)cc1,-1.2%,-0.46%,6.37%,2.46%,0.001%
O[C@@H]1CO[C@H]2[C@@H]1OC[C@@H]2n1nnnc1SCc1ccco1,-7.83%,-0.492%,-4.37%,-7.01%,-21.3%
C=CC1(C)C=C2CCC3C(C)(C)C(O[C@@H]4O[C@@H](CO)[C@H](O)[C@H]4O)CCC3(C)C2CC1O[C@@H]1O[C@H](C)[C@H](O)[C@H](O)[C@H]1O (stereo not given in full),2.12%,-0.251%,4.84%,-12.4%,1.07%
CCOc1ccc(N2C(=O)c3cc(C(C)(C)C)nn3CC2(C)C(=O)NC2CCCCC2)cc1 (stereo not given),-4.78%,-2.41%,-1.04%,4.77%,-0.729%
CCn1ccnc1CN1CCC(Oc2ccccc2OC)(C(=O)O)CC1,-2.58%,-9.33%,-2.56%,-8.87%,-4.1%
CC(=O)c1ccc(C(=O)N[C@H]2COC[C@H]2Cc2cc(C)no2)s1,-3.47%,-3.9%,-1.86%,-3.7%,-0.241%
COCCN1C(=O)c2c(-n3cccc3)c3cc(C)ccc3n2CC1(C)C(=O)NC1CCCCC1 (stereo not given),-6.49%,0.854%,-5.23%,-18.5%,-6.2%
Cc1cc2c(c(=O)o1)C=C1CC[C@H]([C@H](C)Cn3cnc(=N)c4[nH]cnc43)C[C@@H]1O2,-28.4%,0.652%,-40.3%,-47.1%,-15.7%
O=C(NCCC1=CCCCC1)c1c(-c2cncnc2)cc(=O)n2c1CCCC2,-3.62%,-2.47%,-5.01%,-7.36%,-19.1%
Oc1cc(O)c2c(c1)O[C@H](c1ccc(O)c(O)c1)[C@@H](O)C2,-15.2%,6.65%,-1.14%,-3.64%,5.55%
CCc1ccccc1N1C(=O)c2cc(C(C)(C)C)nn2CC1(C)C(=O)NCc1ccccc1 (stereo not given),3.62%,1.1%,4.15%,3.97%,-2.6%
Cc1cc(C)cc(N2C(=O)c3cc(C(C)(C)C)nn3CC2(C)C(=O)NCc2ccccc2)c1 (stereo not given),0.779%,4.88%,2.71%,-10.5%,-2.79%
C=CC(=O)N1CC(N2CCN(C(=O)CNc3cc(C4CC4)c(Cl)cc3O)CC2)C1,-4.24%,-1.34%,2.38%,-14.9%,-0.249%
CCC1c2ccc(C)n2CCN1C(=O)NCc1ccc(F)cc1 (stereo not given),-3.5%,2.75%,-4.88%,-1.32%,-7.67%
CCC(C)NC(=O)c1ccc2c(=O)n(C)c3nnc(SCc4ccccc4)n3c2c1 (stereo not given),-0.345%,2.38%,0.549%,0.952%,-5.4%
Cc1ccc(Cn2c(=O)c3ccc(C(=O)NC4CCCC4)cc3n3c(=O)[nH]nc23)cc1,-8.99%,1.59%,-13.6%,-11.8%,-10.7%
CCCC1c2cccn2CCN1C(=O)Nc1ccccc1CC (stereo not given),2.93%,1.52%,-22%,4.14%,6.69%
CN1C(=O)c2cc(C(=O)NCCCN3CCCC3)nn2CC1(C)C(=O)NC1CCCCC1 (stereo not given),5.37%,0.528%,-2%,3.79%,1.28%

Structure (SMILES),"activity change, negative = inhibition [1]","activity change, negative = inhibition [2]","activity change, negative = inhibition [3]","activity change, negative = inhibition [4]","activity change, negative = inhibition [5]"
CC(C)NC(=O)C(=O)NCc1cccnc1,3.08%,-4.21%,-1.83%,2.41%,-5.01%
CCCC1c2cccn2CCN1C(=O)Nc1cccc(C(F)(F)F)c1 (stereo not given),-4.68%,4.94%,-30.5%,-6.29%,-1.69%
CN1CC(c2ccccc2)CC2(CCN(C(=O)c3ccccc3)CC2)C1 (stereo not given),-2.69%,-0.508%,-12.4%,-6.38%,-2.8%
O=S(=O)(c1ccccc1)c1nnn2c1nc(N1CCN(Cc3ccccc3)CC1)c1ccccc12,3.22%,3.54%,-0.572%,4.07%,1.22%
CC[C@H](C)[C@@H]1NC(=O)[C@H](Cc2ccc(OC)cc2)NC(=O)CCCSC[C@@H](C(=O)N2CCC[C@H]2C(=O)N[C@@H](CC(C)C)C(=O)NCC(N)=O)NC(=O)[C@H](CC(N)=O)NC(=O)[C@H](CCC(N)=O)NC1=O (Y(Me)IQNCPLG-NH2; linker N-5 via X4),5.69%,6.95%,7.05%,-7.6%,0.967%
O=C1NC(=O)c2c1c(-c1ccccc1)cc1[nH]c3ccc(O)cc3c21,-57.9%,-38.8%,-53.4%,-40.6%,-41.3%
CCn1ccnc1CN(C)Cc1cn(-c2ccccc2C)nc1-c1ccc(OC)c(F)c1,0.05%,-1.11%,-3.84%,-7.37%,-14.9%
CCCN1C(=O)c2cc(C(=O)NCc3ccc(SC)cc3)nn2CC1(C)C(=O)NC1CCCC1 (stereo not given),-0.811%,3.01%,4.78%,-0.481%,-0.665%
O=C(CCc1nnc2n(CCc3ccccc3)c(=O)c3ccccc3n12)NCc1ccccn1,-3.34%,3.75%,2.85%,5.5%,-1.33%
CN(C)CCCN1c2ccccc2Sc2ccc(C(F)(F)F)cc21,2.22%,11.7%,-4.15%,-19.4%,6.01%
COc1ccc(CNC(=O)CC[C@]23CC[C@](C)(O)C[C@H]2C(C)(C)C[C@@H]3NC2CCOCC2)cc1,-3.4%,-4.97%,-9.28%,-8.83%,-4.92%
c1ccc(-c2nc(C3CC3)no2)c(OC2CCNC2)c1 (stereo not given),0.004%,0.628%,-3.59%,-4.56%,0.443%
O=C1NCc2ccccc2CC12CCN(Cc1ccsc1)C2 (stereo not given),-12.6%,-9.05%,-8.08%,-25.2%,-11.9%
O=C(/C=C\c1ccc(O)cc1)N[C@@H](Cc1ccc(O)cc1)C(=O)O,-0.487%,-1.48%,13%,-11.5%,4.11%
O=C(CCc1ccc2c(c1)OCO2)N[C@H](c1ccccn1)C1CC(O)C1 (stereo not given in full),-0.405%,-2.72%,0.278%,-3.83%,-2.8%
C/C(=C/CO)CC[C@@H]1[C@@]2(C)CCC[C@](C)(C(=O)O)C2CC[C@@]1(C)O (stereo not given in full),6.21%,5.85%,10.2%,-6.2%,2.83%
CCCn1c(=O)c2ccc(C(=O)NC3CCCC3)cc2n2c(=O)n(Cc3c(F)cccc3Cl)nc12,0.016%,3.17%,-0.394%,-4.65%,-7.68%
Cc1ccc(Cl)cc1N1C(=O)c2cc3occc3n2CC1(C)C(=O)NC1CCCCCCC1 (stereo not given),-4.47%,3.21%,-6.11%,-5.35%,-4.03%
